# Experimental data taken from publication PMC4336329 (PLoS ONE, 2015).
# About 14,000 (4.5%) of roughly 310,000 compounds showed an effect of 50% or more. Effects have a minus sign here. The list shows a part of the results.
# Target: human ether-à-go-go-related gene (hERG) potassium channel (human, UniProt Q12809)
# Assay: primary screen, population patch clamp on CHO cells stably expressing hERG
# 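Note: peak tail current of the secondary pulse compared with the same well before compound.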
# human ether-à-go-go-related gene (hERG) potassium channel, sequence (Q12809 whole entry, looked up): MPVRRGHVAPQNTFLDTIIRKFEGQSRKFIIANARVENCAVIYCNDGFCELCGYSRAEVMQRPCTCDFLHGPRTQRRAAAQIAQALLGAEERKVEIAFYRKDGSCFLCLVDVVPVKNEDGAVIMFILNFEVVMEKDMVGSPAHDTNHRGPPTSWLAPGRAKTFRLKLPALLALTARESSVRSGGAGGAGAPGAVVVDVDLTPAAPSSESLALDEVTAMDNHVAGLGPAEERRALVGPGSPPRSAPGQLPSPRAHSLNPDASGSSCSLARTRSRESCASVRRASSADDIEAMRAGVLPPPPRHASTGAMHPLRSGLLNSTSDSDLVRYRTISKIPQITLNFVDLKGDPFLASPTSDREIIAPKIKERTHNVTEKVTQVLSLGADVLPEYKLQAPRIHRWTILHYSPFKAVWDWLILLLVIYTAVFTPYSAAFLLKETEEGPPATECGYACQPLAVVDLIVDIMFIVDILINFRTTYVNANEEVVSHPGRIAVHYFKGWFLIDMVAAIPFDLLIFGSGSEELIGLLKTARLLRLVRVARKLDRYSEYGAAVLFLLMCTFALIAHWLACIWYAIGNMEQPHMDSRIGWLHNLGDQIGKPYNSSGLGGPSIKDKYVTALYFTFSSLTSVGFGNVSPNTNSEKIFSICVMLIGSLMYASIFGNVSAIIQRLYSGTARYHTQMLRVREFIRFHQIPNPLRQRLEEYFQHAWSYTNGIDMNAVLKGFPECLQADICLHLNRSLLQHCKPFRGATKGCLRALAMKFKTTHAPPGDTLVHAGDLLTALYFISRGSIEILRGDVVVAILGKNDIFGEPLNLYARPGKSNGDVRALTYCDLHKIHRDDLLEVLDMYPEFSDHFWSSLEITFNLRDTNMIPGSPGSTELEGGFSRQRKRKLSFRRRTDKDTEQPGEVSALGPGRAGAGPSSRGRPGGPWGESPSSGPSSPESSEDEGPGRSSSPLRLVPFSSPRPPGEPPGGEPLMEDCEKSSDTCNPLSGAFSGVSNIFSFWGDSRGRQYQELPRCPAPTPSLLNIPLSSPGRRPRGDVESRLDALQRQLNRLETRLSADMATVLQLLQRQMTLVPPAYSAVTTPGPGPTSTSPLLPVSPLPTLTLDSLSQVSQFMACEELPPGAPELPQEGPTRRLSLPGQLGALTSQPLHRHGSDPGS
row,SMILES,"hERG current change (%, negative = inhibition) at 10uM"
1,COc1ccc(S(=O)(=O)Nc2cccc(N(C)S(C)(=O)=O)c2)cc1C,-36%
2,CN(C)S(=O)(=O)c1ccc(NC(=O)CN2CCOCC2)cc1,9.72%
3,COc1ccccc1/C=C1\SC(=S)N(CCC(=O)NNC(=O)c2ccccc2OC)C1=O,27.8%
4,CCOc1ccc(C2C(C#N)=C(N)N(N(C)C)C3=C2C(=O)CCC3)cc1 (stereo not shown),-7.87%
5,C[C@]12CCC(=O)C=C1CC[C@@H]1[C@@H]2[C@@H](O)C[C@@]2(C)[C@H]1CC[C@]2(O)C(=O)COC(=O)CCC(=O)O,2.9%
6,CCCCC(CC)Cn1c(O)c(/C=C2\C=NN=C2c2ccccc2)sc1=S (stereo not shown),13.9%
7,CC(=O)Nc1ccc(CC(=O)O)cc1,2.48%
8,CC(=O)c1c(C)[nH]c(C(=O)OCc2ccccc2)c1C,-3.71%
9,COC(=O)c1ccc(NC(=O)COc2ccc(S(=O)(=O)NC(C)C)cc2)cc1,1.28%
10,CN(C)CC(C)(C)CNC(C(=O)Nc1ccc(Cl)cc1C(F)(F)F)c1ccccc1 (stereo not shown),-76.9%
11,COc1ccc(Cl)cc1N1C(=O)C2CCCN2C1c1ccc(F)c(F)c1 (stereo not shown),-4.05%
12,COC1(OC)N=C(N)C2(C#N)C(c3ccc4c(c3)OCO4)C12C#N (stereo not shown),7.39%
13,O=C(/C=C/c1ccc(Cl)c([N+](=O)[O-])c1)NCc1cccnc1,-11.3%
14,CCN1C(=O)/C(=C/c2ccc(OC)c(OC)c2)N=C1SCC(=O)NCc1ccco1,-15.1%
15,Cc1ccc(N(Cc2ccccc2)C(=O)c2cc(S(=O)(=O)N3CCOCC3)ccc2F)cc1,-10.2%
16,Cn1c(=O)c2c(nc(Cl)n2Cc2ccncc2)n(C)c1=O,2.99%
17,CCOC(=O)c1[nH]cnc1N=Nc1c(O)ccc2ccccc12,11.4%
18,COc1cc(CN2CCN(Cc3ccccc3C(F)(F)F)CC2)cc(OC)c1OC.O=C(O)C(=O)O,-8.28%
19,CCN(CC(=O)Nc1ccc(NC(C)=O)cc1)C(=O)CSCc1c(C)noc1C,5.14%
20,CC(C)(C)SCCNC(=O)CN(c1ccc(F)c(Cl)c1)S(C)(=O)=O,9.67%
21,O=C(CCl)Nc1ccccc1C(=O)Nc1ccc2c(c1)OCO2,15.7%
22,COc1ccc(OC)c(NC(=O)CCNS(=O)(=O)c2ccc3c(c2)c(=O)n(C)c(=O)n3C)c1,10.7%

row,SMILES,"hERG current change (%, negative = inhibition) at 10uM"
1,CC1CCc2sc(C(=O)NNC(=S)NC3CC3)cc2C1 (stereo not shown),26%
2,CC(Sc1nn(-c2ccccc2)c(=S)s1)C(=O)NCC1CCCO1 (stereo not shown),-13%
3,COC(=O)c1sccc1NC(=O)CC1C(=O)NCCN1C(=O)Nc1ccccc1 (stereo not shown),-1.48%
4,CCOC(=O)COc1c(Br)cc(/C=C2\SC(=O)N(CC(=O)N3CCCC3)C2=O)cc1OC,-24%
5,CC1(C(=O)OCC(=O)Nc2ccc(C(N)=O)cc2)CC1(Cl)Cl (stereo not shown),1.95%
6,COc1ccc(C(CNC(=O)COc2cc(C)c(Cl)c(C)c2)N2CCCCC2)cc1 (stereo not shown),-20.2%
7,CCOC(=O)Cc1nnc(NC(=O)CSc2nncn2C)s1,-5.96%
8,COc1cc(CC(=O)NCC2CCCCC2)cc(OC)c1OC,19.6%
9,Cc1ccc(C)c(C(=O)CSc2n[nH]c(C)n2)c1,3.61%
10,O=C1Nc2cc(C(=O)N3CCC(N4CCCCC4)CC3)ccc2S/C1=C\c1ccccc1,-58.3%
11,Cn1c(=O)c2[nH]cnc2n(-c2ccccc2)c1=O,3.59%
12,CCN(CC)CCSc1nc2ccccc2n1Cc1ccccc1.Cl,-74.1%
13,Cc1ccc(NS(=O)(=O)c2cc(NC(=O)c3cc4c(s3)CCCC4)ccc2C)c(C)c1,-5.77%
14,Cc1sc(NC(=O)C2CCCCC2C(=O)O)c(C(N)=O)c1-c1ccccc1 (stereo not shown),3.55%
15,O=C(Nc1cccc(S(=O)(=O)C(F)F)c1)c1ccc(S(=O)(=O)N2CCCCC2)cc1,16.3%
16,CC(C)(C)C(=O)COC(=O)c1cc(-c2cccnc2)nc2ccccc12,-28%
17,O=C(Nc1cnc2ccccc2c1)C1COc2ccccc2O1 (stereo not shown),-23.7%
18,CCOc1cc(C2NC(=O)NC(O)(C(F)(F)F)C2C(=O)c2ccccc2)ccc1OC (stereo not shown),-1.06%
19,Cc1ccc(S(=O)(=O)c2nc(-c3ccc(F)cc3)oc2SCC(=O)NCC2CCCO2)cc1 (stereo not shown),11.5%
20,Cc1cccc(Cn2cc3c(=O)n(Cc4cccc(F)c4)nc-3c3ccccc32)c1,13%
21,CN1CCN(c2nc(-c3ccccc3Cl)nc3ccccc23)CC1,-73.8%
22,COc1ccccc1CNC(=O)N[C@@H](Cc1ccccc1)C(=O)O,0.272%

row,SMILES,"hERG current change (%, negative = inhibition) at 10uM"
1,O=C1NC(=O)/C(=C\c2ccc(O)cc2O)S1,25.2%
2,CC(Oc1ccccc1Cl)C(=O)N1CCOCC1 (stereo not shown),2.79%
3,C=CCSc1nnc(-c2cc3c(-c4ccccc4)nn(C)c3s2)n1C,-39%
4,O=C(COc1ccc(S(=O)(=O)N2CCCC2)cc1)NCc1cccnc1,-3.42%
5,COc1ccc(CC(=O)NCCCSc2ccccc2)cc1OC,-0.803%
6,Cc1ccc(C(=O)NCC(=O)N2CCCCCCC2)cc1C,-6.81%
7,COC(=O)c1ccc(OCCOc2ccc(C(=O)OC)cc2)cc1,-14.3%
8,O=C(CS(=O)(=O)c1ccccc1)Nc1ccc(S(=O)(=O)Nc2ncccn2)cc1,34.6%
9,CC(C)CCNC(=O)CN(CC1CCCO1)C(=O)CCC(=O)Nc1nccs1 (stereo not shown),-10.3%
10,CCOC(=O)NC(=O)/C(N=Nc1cc(C)cc(C)c1)=C(\C)O,18.1%
11,CCc1cc2c(=O)nc3n(c2s1)Cc1ccccc1/C3=C(/O)c1ccc(F)cc1,-3.7%
12,CSc1ccc(/C=C(\NC(=O)c2ccc(C)cc2)C(=O)Nc2cccc(C)c2)cc1,15.6%
13,Cc1ccccc1S(=O)(=O)Cc1ccc(C(=O)NCCCN(C)Cc2ccccc2)o1,-56.2%
14,COc1c(F)c(F)c(C(=O)Nc2ccc(-c3nc4ccccc4[nH]3)cc2)c(F)c1F,0.561%
15,CCN(CC)c1ccc(NC(=O)OC)cc1,6.05%
16,O=C(CSc1nncs1)NCCCc1ccccc1,34.2%
17,Cc1cnc(C(=O)OCc2ccc(Br)cc2)cn1,0.431%
18,O=C(NC(=S)NCCc1ccccc1)c1ccco1,10.2%
19,Cc1csc2c(N3CCN(C(=O)NC(C)(C)C)CC3)ncnc12,2.16%
20,CC(C)n1cc(/C=C2/NC(=O)N(c3cccc(Cl)c3)C2=O)c2ccccc21,5.27%
21,CCOc1ccc(C2=Nn3c(nnc3-c3ccccn3)SC2)cc1,-10.9%
22,CCN=C(Nc1ccc2c(c1)OCO2)SC1CC(=O)N(c2ccc(OC)cc2)C1=O (stereo not shown),16.4%

row,SMILES,"hERG current change (%, negative = inhibition) at 10uM"
1,O=C(c1ccccc1Cc1ccccc1)N1CCN(S(=O)(=O)c2ccc(F)cc2)CC1,19.5%
2,CC(C)NC(=O)C(=O)Nc1ccc2c(c1)N(S(=O)(=O)c1cccs1)CCC2,-9.42%
3,O=C(Nc1cccc(F)c1)c1ccc(S(=O)(=O)NCC2CCCO2)cc1 (stereo not shown),-12.2%
4,N#CCCN(C(=S)NC(=O)c1ccco1)c1ccccc1F,25.5%
5,CCOc1ncccc1C(=O)NCCN1C(=O)S/C(=C/c2cccs2)C1=O,2.67%
6,CC(C)(C)c1ccc(C(=O)NC(=S)Nn2cnnc2)cc1,17%
7,Cc1ccc(-c2c(NC(=O)c3ccco3)oc3ccccc3c2=O)cc1,10.1%
8,CCOC(=O)C(C)Oc1ccc(NC(=O)C(Cl)Cl)cc1 (stereo not shown),5.62%
9,CC(C)(C)c1ccc(C2=CC(c3ccccc3F)n3ncnc3N2)cc1 (stereo not shown),5.95%
10,CSS(=O)(=O)c1cccc2cccnc12,12.7%
11,COc1cc(C(=O)NCC(=O)N/N=C(/C)c2cccs2)cc(OC)c1OC,-0.388%
12,Cc1cc2nc3c(nc2cc1C)CCCC3,15.9%
13,Cc1cc([N+](=O)[O-])cc(/C=N\NC(=O)C2COc3ccccc3O2)c1O (stereo not shown),-1.78%
14,CN(C(=O)c1ccc(Br)o1)C1CCCCC1,6.77%
15,O=C(CN1CCN(S(=O)(=O)c2ccccc2)CC1)NC(=O)NC1CCCCC1,-10.9%
16,CCc1cccc(N(C(=O)c2csnn2)C(C(=O)NC2CCCCC2)c2cccnc2)c1 (stereo not shown),4.65%
17,CCCCN(C)CCNC(=O)C1CCCN(S(=O)(=O)c2cccc3nsnc23)C1 (stereo not shown),-26.3%
18,Cc1ccccc1CCN1CCCC(CN(C)CC(C)(C)C)C1 (stereo not shown),8.88%
19,CC(C)CC(=O)NCc1ccc(F)cc1,12.9%
20,N#CC(C(=O)OC1CCCCC1)c1nc2ccccc2nc1N1CCOCC1 (stereo not shown),-36.8%
21,CC(C)COc1ccc(CNC(=S)N/N=C/c2ccc([N+](=O)[O-])cc2)cc1,-0.529%
22,CCOC(=O)c1ccc(NC(=O)c2cccc(S(=O)(=O)N3CCOCC3)c2)cc1,-24.5%
